Measurements: paper PMC2928299
No constants are given. Whether binding was seen depends on the method and setting. In cells and extracts the contact can be indirect. Tags and fused reporters may be left off the sequences shown.

Target: T1, SBP-Flag Rnd3 (mouse) (UniProt P61588)
T1 sequence: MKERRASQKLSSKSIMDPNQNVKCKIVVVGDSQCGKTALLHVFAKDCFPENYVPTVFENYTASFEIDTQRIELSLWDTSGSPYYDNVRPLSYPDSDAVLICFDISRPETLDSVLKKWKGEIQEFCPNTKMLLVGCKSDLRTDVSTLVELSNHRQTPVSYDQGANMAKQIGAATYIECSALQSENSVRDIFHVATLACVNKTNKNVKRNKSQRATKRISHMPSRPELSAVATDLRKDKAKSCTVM
Experiment: pull-down; streptavidin (SBP) pull-down from lysates of co-transfected 293T cells, SBP-Flag GTPase as bait; beads 1 h at 4°C, 3 washes, elution with 2 mM biotin; immunoblot for Flag

B1: Flag-Syx(1–800) R178E/K179D (domain or fragment, UniProt Q66T02-1 1-800)
chain: MGTGPGVSGRRAAARPSSELPSPDSQLLWVGGHAHSSDSQVCHHADCQQLHHRGPLNLCETCDSKFHSTLHYDGHVRFDLPPQGSVLARNVSTRSCPPRTSPAADLEEEEEGCTDGKGDRKSAGLKISKKKARRRHTDDPSKECFTLKFDLNVDIETEIVPAMKKKSLGEVLLPVFEEDGIALGKVDIYLDQSNTPLSLTFEAYRFGGHYLRVKAKPGDEGKVEQGVKDSKSLSLPALRPSGAGPPVSERVDPQSRRESSLDILAPGRRRKNMSEFLGEAGIPGHEPPAPSSCSLPVGSSGGTSSGINESWKNRAASRFSGFFSSSPSTSAFSREVDKMEQLESKLHAYSLFGLPRMPRRLRFDHDSWEEEEEDDEEDEESSGLRLEDSWRELTDGHEKLTRRQCHQQEAVWELLHTEVSYIRKLRVITNLFLCCLLNLQESGLLCEVEAERLFSNIPEIAKLHRGLWGSVMVPVLEKARRTRALLQPSDFLKGFKMFGSLFKPYIRYCMEEEGCMEYMRGLLRDNDLFRAYVTWAEKHQQCQRLKLSDMLAKPHQRLTKYPLLLKSVLRKTDDPRTKEAIVTMISSVERFIHHVNTCMRQRQERQRLAGVVSRIDAYEVVEGSNDEVDKLLKEFLHLDLTAPMPGTSPEETRQLLLEGSLRMKEGKDSKMDVYCFLFTDLLLVTKAVKKAERTKVIRPPLLVDKIVCRELRDPGSFLLIYLNEFHSAVGAYTFQASSQALCRSWVDTIYNAQNQLQQLRAQLSAQEHPGSQHLQSLEEEEDEQEEEGEESGTSAASSPT
binding: no binding
